According to PMC6212790:
The list shows a part of the results. At the low end of the ranking the order means little.

Each sequence was assayed against T1, GST-Rok-C97-191 (UniProt O34857) (assay: protein binding microarray). Details: Rok is a gene silencer of Bacillus subtilis; high values mean tight binding; most listed sequences are background and not binding sites; double strand, one strand shown.
T1 sequence: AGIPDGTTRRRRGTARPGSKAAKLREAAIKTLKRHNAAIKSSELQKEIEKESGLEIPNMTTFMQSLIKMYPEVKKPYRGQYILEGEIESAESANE
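Note: rank score from −0.5 (least bound) to 0.5 (best bound).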

| Sequence | binding signal |
| --- | --- |
| CGCCCGAC | -0.305 E-score |
| AGCTATTC | -0.0326 E-score |
| GCGGGAAC | -0.127 E-score |
| CTATAATA | 0.34 E-score |
| AAGATCTC | 0.0462 E-score |
| GTTAGGTA | 0.106 E-score |
| CGGAACCA | -0.116 E-score |
| TAGTTAGA | 0.319 E-score |
| AGCAGGCC | -0.353 E-score |
| GGCTATTA | 0.0955 E-score |
| CCACCCGA | -0.304 E-score |
| AACTTCCG | 0.0503 E-score |
| CCTCATCC | -0.253 E-score |
| GGAAGCCC | -0.23 E-score |
| GGCCGGGA | -0.259 E-score |
| AAGAGGGC | -0.165 E-score |
| ATCTCCAT | 0.18 E-score |
| CGTGCCTC | -0.223 E-score |
| GCGGACAC | -0.271 E-score |
| GTTGCCTA | 0.0227 E-score |
| TAAAATAA | 0.281 E-score |
| GATGATGC | -0.12 E-score |
| ACCCGGCG | -0.0876 E-score |
| CCCAAAAG | -0.236 E-score |
| ACAACCCT | 0.0815 E-score |

| Sequence | binding signal |
| --- | --- |
| AATGTGAA | 0.253 E-score |
| AGAAGTTA | 0.194 E-score |
| GCTGCACA | 0.00247 E-score |
| AGGTTCGA | -0.202 E-score |
| CGCCCAGC | -0.358 E-score |
| TGGAGACA | -0.139 E-score |
| CATTTAGC | 0.0299 E-score |
| CAAACTCC | -0.063 E-score |
| GATTCCAA | -0.00566 E-score |
| ATTAACCA | 0.134 E-score |
| ATACGTAT | 0.213 E-score |
| CCTAACAA | 0.0113 E-score |
| CAGATTCA | 0.0984 E-score |
| AAACCGCT | -0.0448 E-score |
| AATGCGGG | -0.0708 E-score |
| CTGTCACC | -0.164 E-score |
| CGACCAGC | -0.129 E-score |
| ACCTTCAT | -0.0551 E-score |
| TCTGCTAA | -0.0564 E-score |
| AGGGTGCC | -0.195 E-score |
| CGCAGCAA | -0.241 E-score |
| CGCCGGGA | -0.322 E-score |
| CTCAGGAC | -0.165 E-score |
| GGGAAATA | 0.229 E-score |
| ATCGAAGC | -0.00284 E-score |

| Sequence | binding signal |
| --- | --- |
| GCGTACCC | -0.00429 E-score |
| ACCTACCT | 0.154 E-score |
| ACGGGCAA | -0.249 E-score |
| GATATAGC | 0.0553 E-score |
| AGTCTTCC | -0.0303 E-score |
| CTAGAGGC | -0.0875 E-score |
| ATACGGGG | -0.0335 E-score |
| CCCAGATA | 0.147 E-score |
| CGTACACC | -0.0472 E-score |
| ACGGCCCC | -0.287 E-score |
| AATATGGC | 0.116 E-score |
| GCAGTGCC | -0.0131 E-score |
| GCGATCAA | -0.158 E-score |
| CATGGATC | 0.052 E-score |
| ATAACTAA | 0.249 E-score |
| GGCATGCC | -0.492 E-score |
| GGCCAGAA | -0.00107 E-score |
| AGGACCAG | -0.242 E-score |
| GCACGTTA | 0.186 E-score |
| ATAATAAC | 0.287 E-score |
| GAGACCCA | -0.0105 E-score |
| AGGGGAGG | -0.343 E-score |
| ACAGGGAA | 0.0404 E-score |
| GACCGGCA | -0.072 E-score |
| ACGTAAGG | -0.0369 E-score |

| Sequence | binding signal |
| --- | --- |
| GTTTATAA | 0.183 E-score |
| GCTAGTGA | 0.0769 E-score |
| GTTCCACA | 0.0837 E-score |
| AGCCGCGA | -0.327 E-score |
| ACAAAACC | -0.0361 E-score |
| CCCAAGAG | -0.161 E-score |
| ATGAAGGA | -0.163 E-score |
| AGAGGCAG | -0.241 E-score |
| ACACCGTC | -0.0123 E-score |
| CCTCATTA | 0.0758 E-score |
| TAAGTTAA | 0.214 E-score |
| TAGCCTCA | -0.0894 E-score |
| ACTACTCT | 0.19 E-score |
| AAGACTAT | -0.0345 E-score |
| ACCTCACT | -0.0237 E-score |
| AAATCGCG | 0.0688 E-score |
| GCCGGGAC | -0.251 E-score |
| CCGCACCG | -0.0859 E-score |
| ACTGGTGG | -0.116 E-score |
| CTGTCGGA | -0.0941 E-score |
| CCACTCGC | -0.161 E-score |
| ATCGCGCC | -0.129 E-score |
| CTATGCAG | 0.12 E-score |
| AGTATTTA | 0.301 E-score |
| ACAACTAC | 0.348 E-score |

| Sequence | binding signal |
| --- | --- |
| ACGGGGTG | -0.196 E-score |
| CCGGCAAA | -0.103 E-score |
| GCTCTAAC | -0.00406 E-score |
| TACTCCGA | 0.111 E-score |
| CGTTCTTC | -0.145 E-score |
| CCCTAAGA | -0.0864 E-score |
| GAATATTC | 0.339 E-score |
| GGGTAGAC | -0.0486 E-score |
| AGAATCTG | 0.0512 E-score |
| AAAAGAAG | -0.0279 E-score |
| ACACCAAG | -0.0851 E-score |
| ATTCCTGA | 0.0117 E-score |
| GACGGCTC | -0.197 E-score |
| CGAGCTCG | 0.00887 E-score |
| CTACATCA | 0.245 E-score |
| ACCAGGAA | -0.11 E-score |
| CTCCCGTC | -0.318 E-score |
| CTCCTGAC | -0.229 E-score |
| ACGCGCGG | -0.282 E-score |
| GTCAGAAA | 0.0136 E-score |
| AGTGACAG | -0.231 E-score |
| AGCTACAT | 0.368 E-score |
| CCGATGCA | -0.0177 E-score |
| GACTTGCA | -0.098 E-score |
| CACTTTCG | -0.028 E-score |

| Sequence | binding signal |
| --- | --- |
| GCAGACAA | -0.0758 E-score |
| AACATTGT | 0.123 E-score |
| AACCCTAT | 0.0077 E-score |
| ACCGATGC | -0.073 E-score |
| AGTGCAAT | 0.00284 E-score |
| TCTCGGCA | 0.0742 E-score |
| CTCAAAGC | -0.0826 E-score |
| TCTCACAA | 0.0734 E-score |
| GGCTGACA | -0.0757 E-score |
| GGTCCCCA | -0.315 E-score |
| ATAGAAAC | 0.326 E-score |
| AATTCAGA | 0.0892 E-score |
| GACGAAAA | -0.0858 E-score |
| CACCTCCG | -0.126 E-score |
| CAACCTAG | -0.000582 E-score |
| GACACATC | -0.00281 E-score |
| AAGCGATA | 0.0708 E-score |
| TCAGCGGA | -0.0224 E-score |
| CTGAAAAC | -0.108 E-score |
| AAATGGGA | -0.015 E-score |
| AAAGACTC | -0.103 E-score |
| GCGCGGAC | -0.325 E-score |
| ACTGAGAT | 0.00452 E-score |
| ATTCCATA | 0.149 E-score |
| GCTCGCTA | 0.145 E-score |

| Sequence | binding signal |
| --- | --- |
| ACTCAAAA | 0.114 E-score |
| ACACTTTG | -0.0345 E-score |
| ACCCCGCC | -0.27 E-score |
| CCGGCACA | -0.0406 E-score |
| ACGAACAC | -0.011 E-score |
| TAAAAGCA | 0.167 E-score |
| ATATGGCC | -0.0543 E-score |
| AAGCTCTG | -0.273 E-score |
| CGGTAGGC | 0.014 E-score |
| GCTTACAC | -0.028 E-score |
| CCTTGGTC | -0.143 E-score |
| CACCTGGC | -0.158 E-score |
| CTCACGTC | 0.053 E-score |
| AGTGCTAT | 0.0913 E-score |
| TAGGGCGA | 0.0402 E-score |
| CACTGGCC | -0.143 E-score |
| TTGCTAAA | 0.164 E-score |
| ACCAATCT | 0.317 E-score |
| GAAAGTTC | 0.04 E-score |
| ATGCCGAA | 0.0148 E-score |
| CACTAGGG | -0.0403 E-score |
| GTAACATA | 0.18 E-score |
